Assay results as given in the supplement of paper PMC3334620.
The full ranking holds about 33,000 sequences; the median of “E-score (-0.5 to 0.5)” is about -0.017, and the highest 2% start at about 0.3. This is one part of the list.

molecular target: T1, Sut1 (UniProt P53032); assay: PBM E-score (8-mer binding enrichment) (E-score (-0.5 to 0.5)); higher = stronger / more preferred TF binding; most listed sequences are background and not binding sites; settings: protein concentration: 200 nM; construct: GST-full length
T1 sequence: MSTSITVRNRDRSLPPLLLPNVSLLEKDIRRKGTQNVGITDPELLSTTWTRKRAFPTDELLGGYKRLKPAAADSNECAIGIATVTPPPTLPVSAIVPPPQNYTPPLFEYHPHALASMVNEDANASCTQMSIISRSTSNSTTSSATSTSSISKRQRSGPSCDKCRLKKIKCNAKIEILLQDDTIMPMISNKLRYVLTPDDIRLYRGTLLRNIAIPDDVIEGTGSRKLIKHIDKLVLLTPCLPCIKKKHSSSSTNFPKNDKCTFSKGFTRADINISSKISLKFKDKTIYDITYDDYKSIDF
Procedure, shortened: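 Yeast transcription factors, full-length or as DNA-binding domains, were expressed with a GST tag using PURExpress in vitro transcription/translation. At about 100-200 nM they were applied to universal all-10-mer Agilent arrays, double-stranded by primer extension on fresh or once-stripped slides. Fluorescent anti-GST detected bound protein, and masliner normalised the scans. E-scores for ungapped eight-base words, pooled with reverse complements, came from the Universal PBM Analysis Suite.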

Sequence	PBM E-score
AATAAAAG	0.142
AGTTTGGC	-0.0727
TCAAGACA	-0.0678
GGGACTCA	-0.288
TCGCACGA	-0.136
ACCAGATG	-0.227
CCAGACCC	-0.324
CAGATTCG	-0.00249
AGGCGCCA	-0.0768
GGTGACAC	-0.176
CGGGCCCC	-0.25
CCGAGGGA	-0.172
CGCTCTGC	-0.101
AACTCGTA	0.0961
ATTTCCTC	0.051
CATAGCGG	-0.0946
AACGCACA	0.00372
GCCGCGGC	0.0334
ATCATGGA	-0.138
AAGTTTGC	0.0892
CGAGAAAG	0.112
CGAGCAGA	-0.27
GCGACCGA	-0.0351
AACTTCCC	-0.0211
AATGGAGC	-0.088

Sequence	PBM E-score
GGTCCGAC	0.24
GGGTTAAA	-0.0466
CTTCTGTA	-0.0703
CAGTTTCG	-0.0259
CCTCCCCG	-0.0253
AGGAATTA	0.137
CGATCAAA	0.123
TAACCGCA	0.0567
ATCGATCC	-0.241
CATGCGCG	-0.108
ATGCTTGG	-0.141
CTACGAGA	-0.0228
AGAAGAGA	0.00644
ATTTTTCA	0.116
AAGAAGTC	0.172
CCCCCGGA	0.0624
ACCCTTAT	-0.0526
AAAATTCG	0.216
AATCGCGC	-0.0232
GAAGCAAC	-0.0509
CGCGGTGA	-0.18
CAACAGAG	-0.045
AAAACATC	-0.018
AACGCGTC	0.022
GCGAAATA	0.0555

Sequence	PBM E-score
CCATTCCA	-0.0844
CTGGGAGC	-0.19
AGGAGGGC	-0.321
GGCACCGA	0.0329
CTGTGGGC	-0.232
CGGAGACA	0.26
CCATACCC	-0.154
AAACTTCC	0.0932
GATATACC	0.116
TAGGAACA	0.0612
GTTCCCCA	-0.189
AACGCGTT	-0.183
GATGTGAA	0.0994
TAAGCTCA	-0.133
AAGCTCAG	0.0414
AAACGAAA	0.228
CCACACGA	-0.154
CGTTTGAG	-0.122
TGGTATAA	0.193
AGATATCA	0.166
GAACTTCC	-0.00268
CATAGCGC	0.025
CATAACGC	-0.00576
GTAATTGA	0.238
GACCGGGA	-0.0471

Sequence	PBM E-score
CTAGCTAC	-0.3
ATGGCAAT	-0.0138
GATTTACC	0.21
AATGTCCA	0.0363
CAAATTCA	0.0268
ACACCACT	0.162
CCACCCGC	-0.23
AACAAGCT	0.135
GTTTGGGA	-0.0285
CATCCCAC	-0.21
GATTCAAA	0.0792
CAGAGCCG	-0.0869
ACGCCCCG	-0.0719
CCTGACAC	-0.0656
CGGCGCCA	-0.247
ACTAATGG	0.214
GATAGTGC	-0.179
AAGAGGAG	-0.0252
ATACCTAG	0.0816
CACCTTTA	-0.129
GAGTTATC	0.237
AGTGTGTA	-0.137
AACATTAA	0.178
AGTACAGA	0.0841
TACCGGGA	0.229

Sequence	PBM E-score
CTCATCTA	0.123
ACACTCGT	-0.135
CGAATCAG	-0.0807
ACCGCATC	-0.00154
AGATCACC	0.00859
CGCGATTC	0.0374
AGCACTGG	-0.115
TACTACTA	0.235
GATCCAAA	0.0639
CCACTGAG	-0.197
AGCTCACC	-0.0857
ACAACCAT	0.259
AGTCCGAG	0.489
ATAACCCA	0.145
GATTGTCA	0.112
CCGTTGGA	0.0326
AGAGAGAG	-0.0921
AACCTAGC	-0.002
TGCGTCAA	-0.0121
CAATTCCC	0.072
CATTGCAC	-0.133
TCCGACGA	0.287
ACATTAAT	0.117
CTTCAATC	0.176
CGGAGGGC	-0.0475

Sequence	PBM E-score
ACCCTCGA	-0.27
AAAATGAC	0.157
CAAATAGA	0.0157
CTCCTAGA	-0.217
AGAACCCT	-0.185
AGCTGTTA	0.0604
GTACAAGA	-0.0428
AAGCTGTA	0.198
ATTGAGCA	-0.0233
CGCAGTCA	-0.147
ACATGACT	-0.19
ACCTGTGG	-0.141
CTATTGCA	0.118
ACCGTCGC	-0.0989
ACGCATAC	0.011
AGTTTCAC	0.0582
CGCTGGAC	-0.105
CAGTTCCC	-0.0933
ACTTCCGC	0.0793
AGAGTGGG	-0.176
CAGTTGGG	-0.207
ATAATCGA	-0.0627
CTCAGGAG	-0.179
ACGGCTGC	-0.239
CACCAGTG	-0.182

Sequence	PBM E-score
CCATCGAA	-0.125
CAGACTAG	-0.288
CACGGAGG	0.0312
CAAGTATA	0.0949
CATACGGG	-0.186
AGCCGTCG	-0.141
AGGGAAGA	-0.164
ACTGCGCG	-0.154
AAATACTG	0.0508
TTTAAAAA	0.145
GACTATTA	0.0972
ATAACGAT	0.0584
AGGGAATC	-0.223
ATGGATAA	0.0734
CATGTAGG	-0.161
ATGGCAGC	-0.187
CTCACTGC	-0.0428
AGGAAAAC	0.0442
ACGTGATG	-0.117
ACCACGAA	-0.0521
GTGGACGA	-0.0595
AAACAGCG	0.17
